Sequences and labels used below:
B1: LINE1-mini (parent)
chain: GGCAGAGCUCAACACAGCGUGGCAAAGUGGCUGUGGCUAGACUGCC

The source gives no read counts; variants with many changes may rest on few reads.

The data set covers variants of B1. The data set can be described thus: self-cleavage, relative activity (ratio to wild type); higher = more cleavage; in vitro, sequencing; the parent is a self-cleaving ribozyme.
In the case of GGCAGAGGUCAACACAACGUGGCAAAGUGACUGUGGCUAGACUGUC [C8G G17A G30A C45U], the self-cleavage came out at 0.06.

On to GGCAGAGGUCAACACUGAGUGGCCAAGUGGCUGUGGCUAGACUGCC [C8G A16U C18A A24C], for which the self-cleavage came to 0.

On to GGCAGAGGUCAACACAGCGUGGCACAGUGGCUGUUGCUAGACUGCC [C8G A25C G35U], for which the self-cleavage came to 0.15.

GGCAGAGGUAAACACAGCGAGCCAAAGUGGCUGUAGCUAGACUGCC [C8G C10A U20A G22C G35A]: the self-cleavage was found to be 0.01.

As for GGCAGAGGUCAACACAGCGUGGCAACGUGGCUGCGGCUAGACUGCC [C8G A26C U34C], the self-cleavage was 0.12.

For GGCAGAGGUUAACACAGUGUUGCAAAGUGGCUGUGGCUAGACUGCC [C8G C10U C18U G21U], the self-cleavage is 0.05.

Consider GGCAGAGGUCAACACAGCGUGGCACUAUGGCUGUGGCUAGACUGCC [C8G A25C A26U G27A], for which the self-cleavage was found to be 0.01.

Regarding GGCAGAGGUAAACACAGCGGGGCAAAGUGGCUGUGGCUUGACUGCC [C8G C10A U20G A39U], the self-cleavage turned out to be 0.02.

Turning to GGCAGAGGUCAACACAGCGUGGCAGAUUGGCUGUGGCUAGACUGCC [C8G A25G G27U], the self-cleavage came out at 0.02.

As for GGCAGAGGUCAACAUAGCGUGGCAAAGUGGCUGUGGCUAGACUGCA [C8G C15U C46A], the self-cleavage worked out at 0.06.

Regarding GGCAGAGGUCAACACAGCGUGGAAAGGUGGCUGUGGCCAGACCACC [C8G C23A A26G U38C U43C G44A], the self-cleavage came out at 0.01.

For the variant GGCAGAGGUCAACACAAGGUGGCAAACUGGCUGUGCCUAGACGGAC [C8G G17A C18G G27C G36C U43G C45A], the self-cleavage was found to be 0.04.

Turning to GGCAGAGGUCAACAAAGCGUGGCAAAGUCGCUGAGGCUAGACUGCC [C8G C15A G29C U34A], the self-cleavage was 0.01.

As for GGCAGAGGUCAACACACCGUGGCAAAGUGGAUGUGGCUAGACUGAC [C8G G17C C31A C45A], the self-cleavage was 0.

Turning to GGCAGAGGUCAACACGGCGUGCCAAAGUUGCUGUGGCUAGACCGCC [C8G A16G G22C G29U U43C], the self-cleavage was 0.01.

In the case of GGCAGAGGUCAACACAGCGUGGCAAUGUGGCUGUGGCGAGACUGCC [C8G A26U U38G], the self-cleavage is 0.3.

As for GGCAGAGGUCAACACAGCGUGGCAAAAUGGCUGUGGCUACACGGCC [C8G G27A G40C U43G], the self-cleavage turned out to be 0.01.

For the variant GGCAGAGGUGAACACAGCGUGGCAAAGUGGCUUUGGCUAGACUGCC [C8G C10G G33U], the self-cleavage stood at 0.03.

In the case of GGCAGAGGUCAACACACCGUGGCUAAGUGGCUGUGGCUAGACUGCC [C8G G17C A24U], the self-cleavage came out at 0.02.

Regarding GGCAGAGGUCAACACUGCGUGGCAAAAUAGCUGUGGCUAGACUGCC [C8G A16U G27A G29A], the self-cleavage amounted to 0.07.

GGCAGAGGUCAACACAUAGUGGCAAAGUGGCUGUGGCGAGACUGGG [C8G G17U C18A U38G C45G C46G]: the self-cleavage turned out to be 0.01.

As to GGCAGAGGUCAAGUAAGCGUGGCAAAGUAGCUGUGGCUAGAUUGCC [C8G C13G A14U C15A G29A C42U], the self-cleavage was found to be 0.03.

As to GGCAGAGGUCAACACAGCGUGGCAGAGUGGCUGUGGAUAGACUCCC [C8G A25G C37A G44C], the self-cleavage worked out at 0.01.

In the case of GGCAGAGGUCAACACAACGUGGUAAUGUGGCUGUGGAUAGACUGCC [C8G G17A C23U A26U C37A], the self-cleavage amounted to 0.02.

As to GGCAGAGGUCAACACAGCGUGGCAAAGUUGCUAUGGCUAGACUGCC [C8G G29U G33A], the self-cleavage worked out at 0.06.

As for GGCAGAGGUAAACACAGCGGGGGAAAGUGGCUGUGGCUAGGCUGCC [C8G C10A U20G C23G A41G], the self-cleavage was determined as 0.

Turning to GGCAGAGGUCAACACAGGGUGGCAAAGUGGCUGUGGCGAGACGGCC [C8G C18G U38G U43G], the self-cleavage amounted to 0.02.

On to GGCAGAGGUCAACACGGCGUGGCAAAGUGGCGGUGGCUAGACUGCC [C8G A16G U32G], for which the self-cleavage was 0.04.

For the variant GGCAGAGGUCAACACAGCGUGGCCAAGUGGCUGCGGCUAGACUGCC [C8G A24C U34C], the self-cleavage was 0.07.

With GGCAGAGGUCAACAGAGUGUGGCAAAGUGGCUGUGGCUAGACUGCC [C8G C15G C18U], the self-cleavage was found to be 0.02.

In the case of GGCAGAGGUCAACACAGCCUGGCAAAGUAGUUGUUGCUAGACUGCC [C8G G19C G29A C31U G35U], the self-cleavage came to 0.06.

On to GGCAGAGGCCAACACAGCAUGGGAAAGUGGCUUGGGCUAGACUGCC [C8G U9C G19A C23G G33U U34G], for which the self-cleavage amounted to 0.01.

As to GGCAGAGGUCAAGACAGCGUGGCAAGGUGGCUGUAGCUAGAUUGCC [C8G C13G A26G G35A C42U], the self-cleavage was determined as 0.09.

As to GGCAGAGGUCAACACAGCGUGGCAAAGUUGCUGUGGCUACACUGCU [C8G G29U G40C C46U], the self-cleavage came out at 0.12.

For the variant GGCAGAGGUCAACACAGCGUGGCGAAGUGGCUGUGGCUUGACUGCG [C8G A24G A39U C46G], the self-cleavage was 0.

For GGCAGAGGUCAACACCGCGUGGUGAAGUGGCUGUGGCUAGACUGCC [C8G A16C C23U A24G], the self-cleavage came out at 0.01.

In the case of GGCAGAGGUCAACACAGCGUGGCACAGUGGCUGUGGCUCGACUGCC [C8G A25C A39C], the self-cleavage turned out to be 0.02.

As to GGCAGAGGUCAACACUGCGUGUCAAAGUGGCUGUGGCUAGACUGCC [C8G A16U G22U], the self-cleavage was determined as 0.03.

On to GGCAGAGGUCAACACAGCGUGGCAUAGUGGCUGUGGCUAGACCGCC [C8G A25U U43C], for which the self-cleavage stood at 0.01.

Take GGCAGAGGUCAACACAGAGUGGCAUAGUCUCUGCGCCUAGACUGCC [C8G C18A A25U G29C G30U U34C G36C]: the self-cleavage was 0.05.

For GGCAGAGGUCAACACAGAGUGCCAAAGUGGCUGUGGCUAGACUGCC [C8G C18A G22C], the self-cleavage worked out at 0.04.

In the case of GGCAGAGGUCAACAUAGCGUGGCAAAGUGGCUUUGGCUGGACUGCC [C8G C15U G33U A39G], the self-cleavage turned out to be 0.08.

As for GGCAGAGGUCAACACAGUGUGGCAAAGUGGCUGUGGCUAGACGGCU [C8G C18U U43G C46U], the self-cleavage is 0.13.

Turning to GGCAGAGGUCAACACAGCGUCGCAAAGUGGCUGUCGCUAGACUGCC [C8G G21C G35C], the self-cleavage came to 0.04.

As to GGCAGAGGUCAACAGAGCGUGGCAAAUUGGCUGUGGCCAGACUGCC [C8G C15G G27U U38C], the self-cleavage is 0.02.

As for GGCAGAGGUCAACAGAGCGUGGCAAAGUGGUUGUGGCUAGACUGCC [C8G C15G C31U], the self-cleavage worked out at 0.02.

As to GGCAGAGGUCAACACAGCGUGGCAAAUUGGCUGUGGCUAGACUGCU [C8G G27U C46U], the self-cleavage is 0.08.

Regarding GGCAGAGGUCAACACAGCGUGGCACAGUGACUGUGGCUAGACUGCC [C8G A25C G30A], the self-cleavage is 0.13.

Regarding GGCAGAGGUCAACUCAGCGUGGCAAAGUGGCUGUGGCUAGACUUCC [C8G A14U G44U], the self-cleavage came out at 0.02.

As for GGCAGAGGUCAACACAGAGUGGCAAGGUGGCUGUGGCUAGACUGCC [C8G C18A A26G], the self-cleavage turned out to be 0.01.

Consider GGCAGAGGUCAACACAGCGUGGCAAAGUGCCUGUGGCUGGACUGCC [C8G G30C A39G], for which the self-cleavage stood at 0.02.

Take GGCAGAGGUCAACACAGCGUGGGCAGGUGGCUGUGGCUAGACUGAC [C8G C23G A24C A26G C45A]: the self-cleavage was 0.02.

Regarding GGCAGAGGUCAACACAGCGUGGCAAAGUGCCUGUGGUUAGACUGAA [C8G G30C C37U C45A C46A], the self-cleavage is 0.

As to GGCAGAGGUCAACACUGCGUGGCAAAGUGUCUGUGGCUAGACUGCC [C8G A16U G30U], the self-cleavage is 0.05.

For GGCAGAGGUCAACACAGCGUGGCAUCGUGGCUGUGGCUAGACUGCC [C8G A25U A26C], the self-cleavage is 0.11.

Turning to GGCAGAGGUCAACACAGCUUUGCAAAAUGGCUGUGGCUAGACUGCC [C8G G19U G21U G27A], the self-cleavage is 0.08.

(Values after the RNAGym collection of RNA variant scans (doi:10.7554/elife.90254).)
